# Measured values reported in PubChem BioAssay AID686970 (National Center for Advancing Translational Sciences (NCATS), 2013).
# The campaign covered roughly 360,000 compounds. About 6,000 (1.7%) were called active. Inconclusive means that the source gave no clear call. Such entries were picked first, then a sample of the others. The call rests on the fitted dose curve; in most records, active means well fitted cell-killing curve with a large enough effect; inconclusive means small, poorly fitted or top-dose-only effect, or effect the other way; inactive means flat fitted curve, though single readings scatter. Potencies of inconclusive entries are left out as doubtful fits.
# Test: qHTS for induction of synthetic lethality in tumor cells producing 2HG: qHTS for the HT-1080-NT fibrosarcoma cell line;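 further: NT is the 2HG producing partner of a matched IDH1 knockdown line; nearly all actives have a fitted effect of over 55% in size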;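 on activity, negative = less viability: 0% = DMSO-treated cells and -100% = media-only wells without cells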
# Conditions: HT-1080-NT fibrosarcoma viability, CellTiter-Glo ATP luminescence, 48 h; activity, negative = less viability: at 46.1 µM (top of the series) unless noted
# In short: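 Luminescent CellTiter-Glo readout after 48 hours of compound exposure at 37 degrees C defined viability of HT-1080-NT cells. Activity was normalized to DMSO wells and cell-free media wells; concentration-response curves were fitted and assigned curve classes.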
# Potency means the concentration at half of the fitted maximal effect; tags describe the fitted curve by direction and shape.
Compound,Potency,"activity, negative = less viability"
COc1cc2c(cc1OC)CN(C(=O)c1ccc3nc[nH]c3c1)CC2,active: 10.3 µM,–
CC(C)(C)c1cc(C(=O)NN)n(Cc2ccc(Cl)cc2Cl)n1,"inconclusive [cytotoxic, partial curve]",–
CC(CNc1nc2ccc(Cl)cc2n2cnnc12)c1ccccc1 (centres undefined),–,inactive: 4.02%
O=C(Nc1ccc2nc3n(c(=O)c2c1)CCCCC3)C(=O)N1CCN(c2ccc(F)cc2)CC1,–,inactive: -21.1%
COc1ccc(CNC(=O)c2nc(S(=O)(=O)Cc3ccccc3)ncc2Cl)cc1,"inconclusive [cytotoxic, partial curve, poor fit]",–
CCC(C)[C@H](NC(=O)[C@@H]1Cc2ccccc2CN1)C(=O)NCc1ccc(C)cc1 (some centres undefined),–,inactive: -5.51%
Cc1cc(=O)[nH]c(NCCO)n1,–,inactive: -2.81%
O=C(O)c1ccccc1/C=N/NC(=S)NCc1ccccc1,"inconclusive [rising, full curve, poor fit]",–
NCCCN(Cc1ccc(Cl)c(Cl)c1)c1ccc(Br)cn1,"inconclusive [cytotoxic, single point]",–
CCc1ccc2nc(SCC(=O)N3CC(=O)Nc4ccccc43)c(C#N)cc2c1,"inconclusive [cytotoxic, partial curve]",–
COc1ccc(C(=O)c2ccc(OC)c3cccc(O)c23)cc1OC,"inconclusive [cytotoxic, partial curve]",–
COc1ccc(NC(=O)c2ccccc2NC(=O)CSc2ccccc2)cc1,"inconclusive [cytotoxic, single point]",–
N#CC1=C2SCC(O)(c3ccccc3)N2C(=O)CC1c1cccs1 (centres undefined),active: 0.631 µM,–
Nc1ccc(CC(N)c2csc(Nc3cc(Oc4ccccc4)ncn3)n2)cc1 (centres undefined),"inconclusive [cytotoxic, partial curve]",–
O=C(CCl)N(C/C=C/c1ccccc1)c1ccc2c(c1)OCCO2,active: 10.3 µM,–
Cn1c(=O)n(C)c2cc([N+](=O)[O-])c(N3CCN(C(=O)c4ccccc4Br)CC3)cc21,"inconclusive [cytotoxic, partial curve]",–
CCOC(=O)c1ccc(NC(=O)c2cccnc2)cc1,"inconclusive [cytotoxic, single point]",–
COc1cc(C#Cc2c(-c3cncn3C)n(C)c3ccc(-c4ccc5cc[nH]c5c4)cc23)cc(OC)c1,"inconclusive [cytotoxic, single point]",–
Cc1ccc2nc(C3CCCN(C(=S)Nc4cccc(C)c4C)C3)[nH]c2c1 (centres undefined),"inconclusive [cytotoxic, single point]",–
